These results are taken from PubChem BioAssay AID463173 (ICCB-Longwood Screening Facility, Harvard Medical School, 2010).

About 4,300 (8.3%) of roughly 52,000 compounds were called active. Rule as the data show it: active = survival mostly below about 52% (no sharp cut-off); inactive = mostly above about 56%. The list shows a part of the results.

The test system of this test is DeltatarO mutant. In words: S. aureus survival, RN4220 and DeltatarO strains – OD600, teichoic acid synthesis inhibitors, primary screen (AID 463173). To be noted: S. aureus RN4220 wild type/DeltatarO growth, OD600, 18 h, hits give low values, screened at 18.75 µg/mL (by protocol).
For the compound `c1ccc(CCCN2CCN(C3CCCC3)CC2)cc1`, the survival was inactive: 95%. The value for `CCOC(=O)N1CCc2c(sc(NCc3ccc(OC)c(Br)c3)c2C(=O)Nc2cc(OC)ccc2OC)C1` was inactive: 80%; that for `CCOC(=O)c1ccccc1NC(=O)N(Cc1ccc(C)cc1)Cc1cccn1-c1nnc(N2CCCC2=O)s1` was inactive: 118%; that for `COC(=O)c1c(NC(=O)c2ccc(S(=O)(=O)N3CCCCC3C)cc2)sc2c1CCN(C(C)C)C2` (stereo not drawn) was inactive: 124%. In the case of `Cc1ccccc1-c1noc(CSc2nnc(Cc3ccccc3)n2-c2ccc(F)cc2)n1` it was inactive: 52%; in that of `COc1ccc(-c2noc(CSc3nnc(-c4ccncc4)n3-c3ccccc3)n2)cc1`, inactive: 70%; in that of `CCC(C)n1c(=N)c(S(=O)(=O)c2ccc(C)cc2)cc2c(=O)n3cc(C)ccc3nc21` (stereo not drawn), inactive: 75%. In the case of `COc1cccc(C2=NN(S(C)(=O)=O)C(c3cn(-c4ccccc4)nc3-c3cccs3)C2)c1` (stereo not drawn) it was inactive: 168%; in that of `COc1ccc(CNC(=O)CN(C)c2nn3c(=O)cc(C)nc3s2)cc1`, inactive: 94%; in that of `CC(=O)c1ccc(N2CCN(C(=O)CS(=O)(=O)c3cccc4nsnc34)CC2)cc1`, inactive: 81%. Regarding `COc1ccccc1NC(=O)N1CC=C(c2c[nH]c3ccccc23)CC1`, the survival is active: 42%.

Regarding `Cc1cc(=O)[nH]c2nnc(SCCC(C)C)n12`, the survival is inactive: 73%.

Regarding `COc1ccc(CCNC(=O)CSc2nnc(-c3ccc(C)cc3)c(-c3ccc(C)cc3)n2)cc1OC`, the survival was inactive: 94%. In the case of `CCCCOc1cccc(C(=O)N(Cc2ccc(Cl)cc2)C2CCS(=O)(=O)C2)c1` (stereo not drawn) it was inactive: 54%; in that of `Cc1ccc(-c2noc(-c3ccc(NCC4CCCO4)c([N+](=O)[O-])c3)n2)cc1` (stereo not drawn), inactive: 74%; in that of `COc1cc(C=C(C#N)C#N)ccc1OC(=O)c1ccco1`, inactive: 89%. The value for `CS(=O)(=O)n1nc(-c2ccco2)nc1N` was inactive: 91%.

Take `CCNC(=S)N1CCN(CC)CC1`: the survival was inactive: 75%. Turning to `Cn1ccc2cc(S(=O)(=O)N3CCCN(C(=O)Nc4ccc(Br)cc4)CC3)ccc21`, the survival was inactive: 73%. Turning to `COCc1[nH]nc2c1C(c1ccccc1C(F)(F)F)C(C#N)=C(N)O2` (stereo not drawn), the survival was inactive: 76%.

For the compound `CCOc1ccccc1C(=O)N(Cc1ccc(N(C)C)cc1)Cc1ccco1`, the survival was inactive: 72%.

As to `COc1cc(C(=O)Nc2ccccc2OCc2cc(=O)n3cc(C)sc3n2)cc(OC)c1OC`, the survival was inactive: 135%. The value for `Nc1nc(N)nc(COc2ccccc2)n1` was inactive: 102%. The value for `Cc1ccc(-c2nnc(Nc3ccc(Cl)cc3)c3ccccc23)cc1S(=O)(=O)NCC1CCCO1` (stereo not drawn) was inactive: 95%; that for `O=C(c1cccc(Cl)c1)N1CCC(c2nc3c(nnn3Cc3ccc(F)cc3F)c(=O)[nH]2)CC1` was active: 11%. In the case of `COc1ccc(C(=O)c2cn(Cc3ccccc3F)c3ccc(F)cc3c2=O)cc1` it was inactive: 76%; in that of `CC1(C)CCCC2(C)C1CCC(C)(O)C2CCO` (stereo not drawn), inactive: 71%.

For the compound `Cc1cccc(NC(=O)c2oc3ccc(S(=O)(=O)N4CCCCC4)cc3c2C)c1C`, the survival was inactive: 71%.

`COc1ccc(-c2[nH]c(-c3ccc(OC)c(OC)c3)nc2SCC(=O)Nc2ccccc2)cc1`: the survival is inactive: 56%. The value for `COc1cc(OC)c(NC(=O)N2CCOc3ccc(C)cc32)cc1Cl` was inactive: 71%; that for `Cc1nn(-c2ccccc2)c2sc(C(=O)NN=C3CCCC3)cc12` was inactive: 109%; that for `O=c1c2c(n3nnnc3n1-c1ccccc1)-c1ccccc1CC21CCCC1` was inactive: 109%.

In the case of `COc1ccc(CNC(=O)c2oc3c(c2C)-c2nn(Cc4ccccc4Cl)cc2CC3)cc1`, the survival was inactive: 89%. In the case of `N#Cc1cc2c(=O)n3ccccc3nc2n(-c2nnc(SCc3ccc(F)cc3)s2)c1=O` it was inactive: 78%; in that of `Cc1ccc(C)c(NC(=O)C(=O)NCC(c2cccnc2)N2CCN(c3ccc(F)cc3)CC2)c1` (stereo not drawn), active: 15%. The value for `CCOC(=O)c1ccc2c(c1)N(CC(=O)Nc1cc(F)ccc1F)C(=O)c1ccccc1S2` was inactive: 71%.

For `O=C(NCCCN1CCN(c2ccc(F)cc2)CC1)c1cc2c(s1)-c1ccccc1OC2`, the survival was active: 55%.

In the case of `CSc1ccccc1NC(=O)C1=CC(c2ccc3c(c2)OCO3)=NS(=O)(=O)N1C`, the survival is inactive: 73%. In the case of `Cc1cccc(-c2nc3cc(NC(=O)Cc4ccc(Cl)cc4)ccc3o2)c1` it was inactive: 66%. The value for `N=c1n(CC(=O)O)c2ccccc2n1Cc1ccccc1` was inactive: 84%; that for `CCN(CC)CCOC(=O)c1ccc(NC(=O)c2nn(-c3ccc(C)cc3)c(=O)c3c2c2ccccc2n3C)cc1` was inactive: 100%. The value for `CCN(C(=O)Cn1nc2c3cc(F)ccc3n(Cc3cccc(C)c3)cc-2c1=O)c1cccc(C)c1` was inactive: 109%.

Regarding `CCOC(=O)CCN(Cc1ccccc1)S(=O)(=O)c1csc(C(N)=O)c1`, the survival is inactive: 83%.

For `CC1CN(C(=O)CCC(=O)NCc2cccs2)c2ccccc2O1` (stereo not drawn), the survival was inactive: 62%. `COc1ccc(NC(=O)c2c(NCc3ccc(C)o3)sc3c2CCC(C)C3)cc1` (stereo not drawn): the survival is inactive: 116%. The value for `CCOC(=O)c1ccc(NC(=O)c2nc(S(=O)(=O)Cc3ccccc3)ncc2Cl)cc1` was active: -2%.

For `COc1cc(NC(=O)C2=C(C)Nc3nnnn3C2c2ccc(SC)cc2)c(OC)cc1Cl` (stereo not drawn), the survival is inactive: 63%.

With `Cc1ccc(S(=O)(=O)c2cn(C)c3cc(N4CCN(c5ccccc5)CC4)c(F)cc3c2=O)cc1`, the survival is inactive: 95%.

For `CCOC(=O)N1CCc2c(sc3c2c(=O)n(Cc2ccccc2)c(=O)n3Cc2cccc(Cl)c2)C1`, the survival was inactive: 83%. Consider `Cc1ccc(-n2nc(C(=O)N3CCCCC3C)c(=O)n(C)c2=O)cc1` (stereo not drawn), for which the survival was inactive: 95%. The value for `CC1CCCCN1S(=O)(=O)c1ccc(NC(=O)c2cnccn2)cc1` (stereo not drawn) was inactive: 80%.

For `Cc1nn(CCCC(=O)NCc2ccccc2)c(=O)c2c1sc1ccccc12`, the survival was inactive: 105%. In the case of `O=C(CC1N=C2c3ccccc3N=C(SCC(=O)Nc3ccccc3F)N2C1=O)NCc1ccc2c(c1)OCO2` (stereo not drawn), the survival is inactive: 73%.

Regarding `Cc1ccc2occ(CC(=O)Nc3c(C(=O)Nc4ccc(Cl)cc4)oc4ccccc34)c2c1`, the survival is inactive: 67%.

On to `CC(C)COc1ccc(C(=O)N2CCC(c3nc4ccccc4s3)CC2)cc1`, for which the survival was active: 17%. As for `Cc1cccc(C)c1NC(=O)CN(C)S(=O)(=O)c1ccc2[nH]c3c(c2c1)CCCC3`, the survival was inactive: 119%. The value for `O=C1CN=C(Nc2ccc(F)cc2)N1C1CCCC1` was inactive: 98%. In the case of `CN(C(=O)CSc1nc2ccccc2[nH]1)c1ccc(F)cc1` it was inactive: 98%; in that of `Cc1ccc(CSc2nncn3c2cc2sccc23)cc1`, inactive: 76%.

`CC(C)CCn1c(=O)c2sccc2n2c(CCCC(=O)Nc3ccc(C(C)C)cc3)nnc12`: the survival was inactive: 86%. In the case of `CCOC(=O)CC(NS(=O)(=O)c1cc(-c2cc(C)no2)ccc1C)c1ccc(C)cc1` (stereo not drawn) it was inactive: 74%; in that of `COc1ccc(N2CCN(c3nc4ccccc4n4c(C)nnc34)CC2)cc1`, inactive: 73%; in that of `CCOc1ccc(C(=O)Nc2ccc3nc4c(c(Nc5ccccc5OC)c3c2)CCCC4)cc1`, inactive: 74%.

`CCOc1ccc2nc(NC(=O)c3nc(SCc4ccc(C)cc4)ncc3Cl)sc2c1`: the survival is inactive: 54%. In the case of `COC(=O)C1=CNC=C(C(=O)OC)C1c1ccc(C(F)(F)F)cc1` it was inactive: 91%; in that of `COc1ccc(CNC(=O)c2ccc3c(c2)CCN3S(=O)(=O)c2ccccc2)cc1`, active: 36%; in that of `CC1CCCN(S(=O)(=O)c2cc(C(=O)NCCc3ccccc3)n(C)c2)C1` (stereo not drawn), inactive: 73%. With `O=C(NCc1cccnc1)C1CCCCC1`, the survival was inactive: 70%. With `Cc1ccccc1CNC(=O)c1ccc(Cn2c(SCc3ccccc3)nc3cccnc32)cc1`, the survival is active: 0%. Turning to `Oc1ccc(Br)cc1C=Nc1ccc2[nH]ncc2c1`, the survival is inactive: 80%. The value for `COc1ccc(OC)c(S(=O)(=O)NCc2ccc3c(c2)CCN3C(=O)c2cccc(C)c2)c1` was inactive: 67%.

Take `Cc1ccc2c(c1)cc(CN(Cc1ccc3c(c1)OCO3)S(=O)(=O)c1ccccc1)c1nnnn12`: the survival is inactive: 90%. In the case of `Cc1cccc(N2C(=O)N(Cc3ccc(C(C)(C)C)cc3)c3ccccc3S2(=O)=O)c1` it was inactive: 61%; in that of `COc1ccccc1NC(=O)C1=C(C)Nc2nc(SCC(=O)c3ccc(C)cc3)nn2C1c1ccc(F)cc1` (stereo not drawn), inactive: 79%. The value for `O=C(NCc1ccc(Cl)cc1)c1cnc(N2CCOCC2)c2ccccc12` was inactive: 94%; that for `CCCOCc1cc(CN2CCN(c3ccccc3OC)CC2)c(O)c2ncccc12` was inactive: 73%. The value for `O=C(Cn1c(=O)sc2ccccc21)OCc1ccccc1` was inactive: 83%; that for `CCOC(=O)c1c(NC(=O)C(C)Sc2cn(CCNC(=O)c3ccc(OC)cc3)c3ccccc23)sc2c1CCC2` (stereo not drawn) was inactive: 76%; that for `COc1ccc(Cn2c(SCc3ccc(C(=O)NCc4cccs4)cc3)nc3ccncc32)cc1` was inactive: 66%.

On to `CCN(C(=O)c1cc(S(=O)(=O)N2CCCC2)cn1C)c1ccc(OC)cc1`, for which the survival was inactive: 84%. The value for `COc1ccc(NC(=O)c2nnn(CC(=O)Nc3cc(C)cc(C)c3)c2N)c(OC)c1` was inactive: 111%. For the compound `CCCCC(=O)Nc1ccc(C(=O)OCc2cc(=O)n3ccsc3n2)cc1`, the survival was inactive: 75%.

Take `O=S(=O)(c1ccccc1)c1nc(-c2ccco2)oc1SCc1ccc(F)cc1`: the survival is inactive: 76%. The value for `Cc1ccc(NC(=O)Cn2c(=O)cc(-c3ccccc3)c3c(C)nn(C)c32)c(Cl)c1` was inactive: 78%. The value for `O=C(CSc1nnc(-c2ccc(Cl)cc2)c(-c2ccc(Cl)cc2)n1)NC1CCCC1` was inactive: 70%. In the case of `O=C(CCCn1c(=O)[nH]c2ccsc2c1=O)N1CCN(c2ccc(Cl)cc2)CC1` it was inactive: 82%; in that of `Cc1ccc(C)c(NC(=O)Cn2c(=O)n(CC(=O)NCCc3ccccc3)c(=O)c3ccccc32)c1`, inactive: 94%; in that of `Cc1ccc(-c2nc(CNC(=O)NC3CCCCC3)c(C)o2)cc1`, inactive: 91%.
